Results taken from patent publication US9062037B2, “Tazarotene derivatives” (Stiefel Laboratories, Inc., priority 2009, dated 2015).
For some of these results: At least one read-out could not be matched to a standard name with certainty. Some results were stated once for a whole list of compounds, not compound by compound. Some ranges recur; such a range may be that of the whole group of compounds.

System: not listed separately
Test: Stability in rat plasma at room temperature
Format: in vitro ADME
Details: in 2 hours
Protocol: (§1) Tazarotene, tazarotene sulfoxide and tazarotene benzoate were incubated at room temperature with human and rat plasma. The incubation was carried out in duplicate and samples were taken at specific time points for stability analyses (i) rat samples (0 hour, 2 hours and 4 hours) and (ii) human samples (0 hour, 2 hours, 4 hours and 8 hours). Samples were analyzed by LC-MS/MS.

Which “loss in rat plasma” value does the source give for CCOC(=O)c1ccc(C#Cc2ccc3c(c2)C(C)(C)CC(OC(=O)c2ccccc2)S3)nc1 (stereo not shown) [Compound 4, 6-(2-(2-benzoyloxy-4,4-dimethylthiochroman-6-yl)ethynyl)nicotinic acid, ethyl ester] here?
The value was 75-100%.

With CCOC(=O)c1ccc(C#Cc2ccc3c(c2)C(C)(C)CC[S+]3[O-])nc1 (stereo not shown) [Tazarotene sulfoxide, 6-(4,4-Dimethyl-1-oxo-1λ^4-thiochroman-6-ylethynyl)nicotinic acid ethyl ester] as the compound, how does the “loss in rat plasma” value read?
Its value is 75-100%.

System: not listed separately
Test: Stability in human plasma at room temperature
Format: in vitro ADME
Details: at 2 hours
Protocol: as §1

With CCOC(=O)c1ccc(C#Cc2ccc3c(c2)C(C)(C)CC(OC(=O)c2ccccc2)S3)nc1 (stereo not shown) [Compound 4, 6-(2-(2-benzoyloxy-4,4-dimethylthiochroman-6-yl)ethynyl)nicotinic acid, ethyl ester] as the compound, how does the “loss in human plasma” value read?
The value was under 10%.

For CCOC(=O)c1ccc(C#Cc2ccc3c(c2)C(C)(C)CC[S+]3[O-])nc1 (stereo not shown) [Tazarotene sulfoxide, 6-(4,4-Dimethyl-1-oxo-1λ^4-thiochroman-6-ylethynyl)nicotinic acid ethyl ester], which “loss in human plasma” value is on record?
Its value is under 10%.

Same assay, conditions: by 8 hours

With CCOC(=O)c1ccc(C#Cc2ccc3c(c2)C(C)(C)CC(OC(=O)c2ccccc2)S3)nc1 (stereo not shown) [Compound 4, 6-(2-(2-benzoyloxy-4,4-dimethylthiochroman-6-yl)ethynyl)nicotinic acid, ethyl ester] as the compound, how does the “loss in human plasma” value read?
The value was under 15%.

For CCOC(=O)c1ccc(C#Cc2ccc3c(c2)C(C)(C)CC[S+]3[O-])nc1 (stereo not shown) [Tazarotene sulfoxide, 6-(4,4-Dimethyl-1-oxo-1λ^4-thiochroman-6-ylethynyl)nicotinic acid ethyl ester], which “loss in human plasma” value is on record?
Its value is under 15%.

System: Reconstructed human epidermis (RHE) tissues
Test: RT-qPCR gene expression of K10, K19, filaggrin, K4 and K13 in reconstructed human epidermis (RHE) cultures
Format: cell-based
Details: 2.83 mM in OD/10% DMSO, 6 μl, 72 hours
Protocol: Reconstructed human epidermis (RHE) tissues were cultured in-house as previously described by Poumay et al. Briefly, polycarbonate culture inserts (12 mm diameter and 0.4 μm pore size, Millipore) were filled with 150 μL of a suspension containing approximately 5×10^5 primary adult human keratinocytes. The inserts received another 500 μL of keratinocyte culture media and were placed in a 6-well plate (1 insert/well) containing 2.5 mL of RHE Growth Media (Epilife media +1.5 mM CaCl2). RHE cultures were incubated at 37° C. in a humidified atmosphere containing 5% CO2, for 24 hours. Subsequently (on Day 0), RHE cultures were exposed to the air-liquid interface by removing the RHE Growth Media from the top of the cultures, and replacing with 1.5 mL/well of RHE Growth Media containing 50 μg/mL vitamin C. Media was changed every other day until the cultures were dosed with Test Articles. A stock solution of 0.1% tazarotene (2.83 mM at 99.5% purity) in OD/10% DMSO was prepared. For tazarotene benzoate, hydroxytazarotenic acid, keto tazarotenic acid, keto tazarotene, and tazarotene nicotinate, a 10 mg/mL stock solution (in DMSO) was already prepared. From this stock solution, a 2.83 mM working solution (in octyldodecanol) was prepared. All other tested compounds were resuspended in DMSO and OD to obtain a final concentration of 2.83 mM in OD/10% DMSO. On Day 12, the cultures were placed in 60 mm petri dishes containing 3 mL of RHE Growth Media (+VitC). Test articles (6 μl) were applied to triplicate cultures and cultures were incubated at 37° C. for 72 hours. Untreated and OD alone served as negative controls. At the end of the incubation period, the growth media was collected and stored at −20° C. The tissues were cut in half: one half was placed in 10% NBF for histology, and the other half was placed in RNAlater™ solution for RT-qPCR. RNA was isolated and concentrations were determined using a NanoDrop spectrophotometer. In addition to using the same amount of RNA for each sample, data was normalized to internal GAPDH mRNA levels and is expressed as relative quantification (RQ) to untreated controls. RNA extracts from each replicate were amplified using RT-qPCR. The relative gene expression of five biomarkers was determined: Keratin 10, Keratin 19, Filaggrin, Keratin 4, and Keratin 13.

For CCOC(=O)c1ccc(C#Cc2ccc3c(c2)C(C)(C)CC(OC(=O)c2ccccc2)S3)nc1 (stereo not shown) [Compound 4, 6-(2-(2-benzoyloxy-4,4-dimethylthiochroman-6-yl)ethynyl)nicotinic acid, ethyl ester], which “Filaggrin Fold Change vs Untreated/OD controls (downregulation)” value (“Filaggrin Fold Change” below) is on record?
The value was 3 fold.

And the “K10 Fold Change vs Untreated/OD controls (downregulation)” value (shortened to “K10 Fold Change”)?
The value was 2 fold.

Which “Filaggrin Fold Change” value does the source give for CCOC(=O)c1ccc(C#Cc2ccc3c(c2)C(C)(C)C[C@@H](OC(=O)c2ccccc2)S3)nc1 [Compound 5, (S)-6-(2-(2-benzoyloxy-4,4-dimethylthiochroman-6-yl)ethynyl) nicotinic acid, ethyl ester] here?
Its value is 1 fold.

And the “K10 Fold Change” value?
Its value is 1 fold.

Which “Filaggrin Fold Change” value does the source give for CCOC(=O)c1ccc(C#Cc2ccc3c(c2)C(C)(C)C[C@H](OC(=O)c2ccccc2)S3)nc1 [Compound 6, (R)-6-(2-(2-benzoyloxy-4,4-dimethylthiochroman-6-yl)ethynyl)nicotinic acid, ethyl ester] here?
Its value is 16 fold.

What about the “K10 Fold Change” value of the same compound?
The value was 8 fold.

What does the source list for CCOC(=O)c1ccc(C#Cc2ccc3c(c2)C(C)(C)CC(OC(=O)c2cccnc2)S3)nc1 (stereo not shown) [Compound 7, 6-[4,4-Dimethyl-2-(pyridine-3-carbonyloxy)thiochroman-6-ylethynyl]nicotinic acid ethyl ester]?
Filaggrin Fold Change vs Untreated/OD controls (downregulation): 100 fold; K10 Fold Change vs Untreated/OD controls (downregulation): 19 fold

For CCOC(=O)c1ccc(C#Cc2ccc3c(c2)C(C)(C)C[C@@H](OC(=O)c2cccnc2)S3)nc1 [Compound 8, (S)-6-[4,4-dimethyl-2-(pyridine-3-carbonyloxy)thiochroman-6-ylethynyl]nicotinic acid ethyl ester], which “Filaggrin Fold Change” value is on record?
Its value is 9 fold.

What about the “K10 Fold Change” value of the same compound?
Its value is 7 fold.

For CCOC(=O)c1ccc(C#Cc2ccc3c(c2)C(C)(C)C[C@H](OC(=O)c2cccnc2)S3)nc1 [Compound 9, (R)-6-[4,4-dimethyl-2-(pyridine-3-carbonyloxy)thiochroman-6-ylethynyl]nicotinic acid ethyl ester], which “Filaggrin Fold Change” value is on record?
Its value is 10 fold.

What about the “K10 Fold Change” value of the same compound?
The value was 6 fold.

Which “Filaggrin Fold Change” value does the source give for CC1(C)CC(O)Sc2ccc(C#Cc3ccc(C(=O)O)cn3)cc21 (stereo not shown) [Compound 10, 6-((2-hydroxy-4,4-dimethylthiochroman-6-yl)ethynyl)nicotinic acid] here?
Its value is 6 fold.

And the “K10 Fold Change” value?
The value was 6 fold.

With CC1(C)CC(=O)Sc2ccc(C#Cc3ccc(C(=O)O)cn3)cc21 [Compound 11, 6-((4,4-dimethyl-2-oxothiochroman-6-yl)ethynyl)nicotinic acid] as the compound, how does the “Filaggrin Fold Change” value read?
Its value is 36 fold.

And the “K10 Fold Change” value?
The value was 17 fold.

For CCOC(=O)c1ccc(C#Cc2ccc3c(c2)C(C)(C)CC(=O)S3)nc1 [Compound 12, ethyl 6-((4,4-dimethyl-2-oxothiochroman-6-yl)ethynyl)nicotinate], which “Filaggrin Fold Change” value is on record?
Its value is 1 fold.

And the “K4 Fold Change vs Untreated/OD controls (upregulation)” value?
Its value is 173 fold.

What about the “K10 Fold Change” value of the same compound?
The value was 2 fold.

Which “Filaggrin Fold Change” value does the source give for CCCCCCCCCCCCCCCC(=O)OC1CC(C)(C)c2cc(C#Cc3ccc(C(=O)OCC)cn3)ccc2S1 (stereo not shown) [Compound 13] here?
Its value is 1 fold.

And the “K10 Fold Change” value?
The value was 2 fold.

With CCOC(=O)c1ccc(C#Cc2ccc3c(c2)C(C)(C)CC(O)S3)nc1 (stereo not shown) [Compound 14, Ethyl 6-[(2-hydroxy-4,4-dimethyl-3,4-dihydro-2-thiochromen-6-yl)ethynyl]pyridine-3-carboxylate] as the compound, how does the “Filaggrin Fold Change” value read?
Its value is 11 fold.

And the “K10 Fold Change” value?
Its value is 7 fold.

For CCOC(=O)c1ccc(C#Cc2ccc3c(c2)C(C)(C)CC(OC(=O)CO)S3)nc1 (stereo not shown) [Compound 15, 6-[2-(2-Hydroxy-acetoxy)-4,4-dimethyl-thiochroman-6-ylethynyl]-nicotinic acid ethyl ester], which “Filaggrin Fold Change” value is on record?
Its value is 8 fold.

What about the “K10 Fold Change” value of the same compound?
The value was 7 fold.

What about the “K19 Fold Change vs Untreated/OD controls (upregulation)” value (shortened to “K19 Fold Change”) of the same compound?
The value was 36 fold.

What does the source list for CCOC(=O)c1ccc(C#Cc2ccc3c(c2)C(C)(C)CC(OC(=O)COC)S3)nc1 (stereo not shown) [Compound 16]?
Filaggrin Fold Change vs Untreated/OD controls (downregulation): 7 fold; K10 Fold Change vs Untreated/OD controls (downregulation): 7 fold

Which results are given for CCOC(=O)c1ccc(C#Cc2ccc3c(c2)C(C)(C)CC(OC(C)=O)S3)nc1 (stereo not shown) [Compound 17]?
Filaggrin Fold Change vs Untreated/OD controls (downregulation): 2 fold; K4 Fold Change vs Untreated/OD controls (upregulation): 180 fold; K10 Fold Change vs Untreated/OD controls (downregulation): 3 fold

With CCCC(=O)OC1CC(C)(C)c2cc(C#Cc3ccc(C(=O)OCC)cn3)ccc2S1 (stereo not shown) [Compound 18, Ethyl 6-[(2-n-butyryloxyl-4,4-dimethyl-3,4-dihydro-2-thiochromen-6-yl)ethynyl]pyridine-3-carboxylate] as the compound, how does the “Filaggrin Fold Change” value read?
Its value is 7 fold.

And the “K10 Fold Change” value?
The value was 4 fold.

Which “Filaggrin Fold Change” value does the source give for CCCCCCCCCCCC(=O)OC1CC(C)(C)c2cc(C#Cc3ccc(C(=O)OCC)cn3)ccc2S1 (stereo not shown) [Compound 19] here?
The value was 2 fold.

And the “K10 Fold Change” value?
The value was 2 fold.

Which “Filaggrin Fold Change” value does the source give for CCOC(=O)c1ccc(C#Cc2ccc3c(c2)C(C)(C)CC(OC(=O)C(C)C)S3)nc1 (stereo not shown) [Compound 20, Ethyl 6-[(2-isobutyryloxy-4,4-dimethyl-3,4-dihydro-2-thiochromen-6-yl)ethynyl]pyridine-3-carboxylate] here?
Its value is 12 fold.

And the “K10 Fold Change” value?
The value was 10 fold.

For CC/C=C\C/C=C\C/C=C\CCCCCCC(=O)OC1CC(C)(C)c2cc(C#Cc3ccc(C(=O)OCC)cn3)ccc2S1 (stereo not shown) [Compound 22], which “Filaggrin Fold Change” value is on record?
Its value is 11 fold.

What about the “K10 Fold Change” value of the same compound?
The value was 7 fold.

For CCOC(=O)c1ccc(C#Cc2ccc3c(c2)C(C)(C)CC(OC(=O)C2CCN(C)CC2)S3)nc1 (stereo not shown) [Compound 23], which “Filaggrin Fold Change” value is on record?
The value was 18 fold.

What about the “K10 Fold Change” value of the same compound?
Its value is 9 fold.

And the “K19 Fold Change” value?
The value was 43 fold.

With CCOC(=O)c1ccc(C#Cc2ccc3c(c2)C(C)(C)CC(OC(=O)CC)S3)nc1 (stereo not shown) [Compound 24] as the compound, how does the “Filaggrin Fold Change” value read?
Its value is 56 fold.

What about the “K10 Fold Change” value of the same compound?
The value was 14 fold.

And the “K19 Fold Change” value?
Its value is 33 fold.

Which “Filaggrin Fold Change” value does the source give for CCOC(=O)c1ccc(C#Cc2ccc3c(c2)C(C)(C)CC(OC(=O)c2ccccc2O)S3)nc1 (stereo not shown) [Compound 25, Ethyl 6-[(2-salicylicyl-4,4-dimethyl-3,4-dihydro-2-thiochromen-6-yl)ethynyl]pyridine-3-carboxylate] here?
Its value is 4 fold.

What about the “K4 Fold Change vs Untreated/OD controls (upregulation)” value of the same compound?
Its value is 103 fold.

What about the “K10 Fold Change” value of the same compound?
Its value is 3 fold.

With CCOC(=O)c1ccc(C#Cc2ccc3c(c2)C(C)(C)CC(OC(=O)C2CCOCC2)S3)nc1 (stereo not shown) [Compound 26] as the compound, how does the “Filaggrin Fold Change” value read?
The value was 4 fold.

What about the “K10 Fold Change” value of the same compound?
Its value is 4 fold.

With CCOC(=O)c1ccc(C#Cc2ccc3c(c2)C(C)(C)CC(OC(=O)CCCCC(=O)OC)S3)nc1 (stereo not shown) [Compound 27, Ethyl 6-[(2-monomethyladopyl-4,4-dimethyl-3,4-dihydro-2-thiochromen-6-yl)ethynyl]pyridine-3-carboxylate] as the compound, how does the “Filaggrin Fold Change” value read?
Its value is 23 fold.

What about the “K10 Fold Change” value of the same compound?
Its value is 10 fold.

And the “K19 Fold Change” value?
The value was 41 fold.

Which results are given for CCOC(=O)c1ccc(C#Cc2ccc3c(c2)C(C)(C)CC(OC(=O)CCCCCCCC(=O)OC)S3)nc1 (stereo not shown) [Compound 28]?
Filaggrin Fold Change vs Untreated/OD controls (downregulation): 7 fold; K4 Fold Change vs Untreated/OD controls (upregulation): 77 fold; K10 Fold Change vs Untreated/OD controls (downregulation): 6 fold

For CCOC(=O)c1ccc(C#Cc2ccc3c(c2)C(C)(C)CC(OC(=O)[C@@H](N)C(C)C)S3)nc1 (stereo partly drawn) [Compound 29, 6-[2-((S)-2-Amino-3-methyl-butyryloxy)-4,4-dimethyl-thiochroman-6-ylethynyl]-nicotinic acid ethyl ester], which “Filaggrin Fold Change” value is on record?
The value was 11 fold.

And the “K10 Fold Change” value?
Its value is 9 fold.
